Among the data in PubChem BioAssay AID488969 (Vanderbilt High Throughput Screening Facility, 2010) are z-score values, retold here.

The full ranking holds about 110,000 compounds; the median of “z-score” is about -0.1, and the highest 2% start at about 2. Some of the results follow. Calls of active or inactive are those of the source.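 How the source made its calls: active means z-score in the third read window above 3 or below -3; inactive means the rest.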

The target of this experiment is Metabotropic glutamate receptor 8 (Rattus norvegicus) (UniProt P70579). As to the kind of experiment: mGluR8 Gi/Go-coupled signaling modulation – cell-based, rat, thallium flux, HTS, primary screen (AID 488969). Conditions: HEK293 rat mGluR8, GIRK (G protein-gated inwardly rectifying potassium channel) thallium flux, FluoZin2; at 10 µM; stronger effect = higher value; submaximal glutamate (EC20) added with thallium.
Sequence of UniProt P70579 (P70579 whole entry, looked up): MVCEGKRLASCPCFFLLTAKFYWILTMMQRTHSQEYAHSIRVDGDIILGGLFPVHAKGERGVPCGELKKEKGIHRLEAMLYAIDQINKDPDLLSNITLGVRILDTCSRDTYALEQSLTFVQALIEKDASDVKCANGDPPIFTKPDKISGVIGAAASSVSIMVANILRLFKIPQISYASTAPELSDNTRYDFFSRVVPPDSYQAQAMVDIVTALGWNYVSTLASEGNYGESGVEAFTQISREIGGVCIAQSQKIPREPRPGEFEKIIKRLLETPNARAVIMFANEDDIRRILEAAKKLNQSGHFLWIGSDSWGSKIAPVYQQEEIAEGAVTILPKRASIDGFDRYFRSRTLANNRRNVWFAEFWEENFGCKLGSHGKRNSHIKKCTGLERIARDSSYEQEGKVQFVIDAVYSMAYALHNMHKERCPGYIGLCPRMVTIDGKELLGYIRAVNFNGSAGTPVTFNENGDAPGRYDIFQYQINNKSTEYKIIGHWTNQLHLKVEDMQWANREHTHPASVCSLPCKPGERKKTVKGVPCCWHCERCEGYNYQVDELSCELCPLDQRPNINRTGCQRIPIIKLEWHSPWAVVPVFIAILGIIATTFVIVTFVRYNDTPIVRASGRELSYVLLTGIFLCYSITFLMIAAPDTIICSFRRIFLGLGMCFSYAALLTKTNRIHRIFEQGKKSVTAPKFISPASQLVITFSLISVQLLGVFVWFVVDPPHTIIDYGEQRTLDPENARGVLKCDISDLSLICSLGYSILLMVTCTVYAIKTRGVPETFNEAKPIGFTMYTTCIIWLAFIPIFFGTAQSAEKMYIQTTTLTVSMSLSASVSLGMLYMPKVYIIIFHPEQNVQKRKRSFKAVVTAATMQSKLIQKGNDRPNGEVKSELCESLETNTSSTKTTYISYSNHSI
`O=C(CN1CCN(Cc2ccccc2F)C1=O)NCCc1ccc(Cl)cc1` displayed a z-score of -0.0799. The same measure for `COc1cccc(/C=N/NC(=O)CCCC(=O)NC2CCCCC2)c1`: -0.369; for `Cc1cccc(COc2ccc(/C(O)=C3\C(=O)C(=O)N(CCN(C)C)C3c3ccncc3)cc2)c1` (configuration not stated): -0.393. The same measure for `Cc1[nH]nc2cn[nH]c12`: 0.0297. Then `COc1ccc(-c2cc(CNC(C)=O)on2)cc1`, with -0.174; and `Cn1cccc1CC(=O)NNC(=S)Nc1ccc(Cl)cc1Cl`, with 0.615.

In the case of `c1ccc(-c2noc(C3CCCCC3)n2)nc1`, the z-score was -0.0672. Then `CC(C)CCNC(=S)Nc1ccccc1F`, with 0.154; and `CCOc1cc(C(=S)N2CCCCC2)ccc1OCC(=O)NCc1ccccc1`, with -0.00169. Then `CCn1c(/C=C2\C(=O)Nc3ccccc32)nc2ccccc2c1=O`, with -0.221. The same measure for `CCc1ccc(C2C(C(=O)O)c3ccccc3C(=O)N2C)cc1` (configuration not stated): -0.299; for `O=C(NCc1ccc(F)cc1)C1(c2cccs2)CCOCC1`: -0.219. In turn, `COc1ccc(CCN(Cc2cc3cccc(C)c3[nH]c2=O)C(=O)N2CCCC2)cc1OC` displayed a z-score of 0.181. `Cc1nn(C(=O)c2ccco2)c(C)c1Br` showed a z-score of -0.107.

As for `Cc1cccc(NC(=O)C2CCCN2/C=C/C(=O)C(F)(F)F)c1C` (configuration not stated), the z-score amounted to 0.104.

Turning to `O=C(Cc1ccccc1)NCc1ccc(F)cc1`, the z-score is -0.0971. The same measure for `Cc1ccc(C(=O)Oc2ccc(-c3nccc(-c4ccccn4)n3)cc2)cc1`: -0.114; for `O=C(Nc1nccs1)c1ccc(Cl)cc1[N+](=O)[O-]`: -0.05. Regarding `Cc1ccccc1N1C(=O)c2sc3nc4c(c(=O)n3c2C1=O)CCC4`, the z-score came out at 0.172. The same measure for `COc1ccc(NC(=O)CSc2nc(O)cc(=O)n2C)cc1`: 0.0146; for `CCOC(=O)CC(NC(=O)C1c2ccccc2Oc2ccccc21)c1ccccc1Cl` (configuration not stated): -0.687. The compound `Clc1ccc(SCc2cc(-c3ccccc3)on2)cc1` showed a z-score of -0.103. The compound `O=C(NCN1CCc2ccccc2C1)c1cnccn1` showed a z-score of 0.178.

In the case of `Cc1ccc(C(=O)NNC(=O)Cc2cccs2)cc1`, the z-score came to 0.0316. Then `O=C(NCCO)c1nc2ccccc2s1`, with 1.28; and `CCOC(=O)NC(=O)/C(C#N)=N\Nc1ccc(Cl)cc1`, with -0.748; and `Cc1nc(CNS(=O)(=O)c2cccc(F)c2)cs1`, with -0.136. The same measure for `COc1ccccc1CNC(=O)CSc1ccc(C(=O)Nc2ccccc2OC)cc1[N+](=O)[O-]`: 0.0929; for `COC(=O)C1=C(O)C(C(=O)OC)C(c2ccc(C)cc2)C(C#N)(C#N)C1c1ccc(C)cc1` (configuration not stated): -1.33; for `COC(=O)CCCC[C@H]1SC[C@H]2NC(=O)N[C@]21O`: 0.0742. Then `O=C(O)CSCc1cn2cc(Cl)ccc2n1`, with 0.0981. Turning to `CC1CCCC(C)N1c1nnc(NC(=O)c2cc(-c3ccc(Br)cc3)on2)s1` (configuration not stated), the z-score is 2.04. Then `O=C(NCCNC(=O)c1cccs1)c1ccco1`, with 0.31; and `COC(=O)[C@H](C)NC(=O)Nc1cc(OC)ccc1OC`, with -0.238. In turn, `N#C/C(=C\c1cn(Cc2ccccc2)c2ccccc12)C(=O)NCc1ccco1` gave a z-score of -0.0595. The same measure for `CCN(CC)S(=O)(=O)c1ccc(-c2nnc(SCC(=O)Nc3ccc4c(c3)OCO4)o2)cc1`: 0.536; for `CN1CCCN(C(=O)Cc2c(Cl)cccc2Cl)c2nc3ccccc3nc21`: 0.275; for `CCn1c2c(c(C)cc1=O)C(=O)CC(C)(C)C2`: 0.2. Then `Cc1cc(C)cc(N2CCCn3c2nc2c3c(=O)n(CC(=O)OCc3ccccc3)c(=O)n2C)c1`, with -0.428; and `O=C(O)C1C2C=CC(CC2)C1C(=O)O` (configuration not stated), with -1.28; and `CCN(CC)S(=O)(=O)c1ccc(N=NC2=C(O)CC(C)(C)CC2=O)cc1`, with 0.244. Then `CCSc1cc(N2CCCC2)nc(-c2ccccc2)n1`, with -0.247; and `COc1ccc(C(=O)NC2CCN(C(=S)NCc3ccco3)CC2)cc1`, with -0.112; and `CSc1nc(SCC(=O)NCc2ccco2)c2c3c(sc2n1)CN(C)CC3`, with -0.588. `CCCCSc1nnc(-c2cc(Br)ccc2N)c(=O)[nH]1` had a z-score of 0.279. The same measure for `Cc1ccc2[nH]c(C)c(CCNC(=O)C3CCCCC3C(=O)OCC(F)(F)F)c2c1` (configuration not stated): -0.519. Then `O=C(c1cnn2cccnc12)N1CCN(Cc2ccc3c(c2)OCO3)CC1`, with -0.0594. The same measure for `O=C(CNCc1ccco1)Nc1ccccc1-n1cccc1`: -0.0582; for `CCn1c(COc2ccc(C)cc2)nnc1SCC(=O)Nc1ccc2c(c1)OCCO2`: -0.0204. `CCC(C)(C)NC(=O)C(c1ccc(C)cc1)N(Cc1ccco1)C(=O)CCC(=O)Nc1nccs1` (configuration not stated) gave a z-score of -0.299. Regarding `Cc1ccc(S(=O)(=O)CCSc2cccc(C(=O)Nc3ccccc3C(=O)O)c2)cc1`, the z-score was -0.687. On to `c1ccc(C2Oc3ccccc3C3CC(c4cccs4)=NN32)cc1` (configuration not stated), for which the z-score amounted to 1.42. With `Cc1ccc(NC(=O)N2CCN(Cc3ccc4c(c3)OCO4)CC2)cc1`, the z-score is -0.449. Then `CN(C)S(=O)(=O)Oc1ccsc1C(=O)Nc1cccc(Cl)c1Cl`, with 0.0809. Take `CC(C)CNS(=O)(=O)c1ccc(CCC(=O)NCc2cccnc2)cc1`: the z-score was -0.394. Then `COc1ccc(S(=O)(=O)Nc2ccc3oc(C)c(C(C)=O)c3c2)cc1`, with -0.227; and `O=C(Oc1ccc(/C=N/Nc2ccccc2)cc1)c1ccccc1`, with 0.464. For `COc1cccc(/C=N/NC(=O)c2nc(-c3ccccc3)cc(-c3ccccc3)n2)c1`, the z-score is -0.286. Then `CCCCCCCN(C(=O)CCl)c1cccc(C)c1`, with -0.252; and `CN(C)CC/C=C1\c2cc(F)ccc2CSc2ccccc21`, with 1.45. The compound `CS(=O)(=O)N(CC(=O)NCCSC1CCCCC1)c1ccc2c(c1)OCO2` yielded a z-score of -0.0915. Compound `COc1ccc(CCNC(=O)N2c3ccccc3Sc3ccccc32)cc1` showed a z-score of -0.197. Then `O=C(NCCOc1cccc(Cl)c1Cl)c1cc(-n2cnnc2)ccc1Cl`, with -0.00528. Then `Cc1ccc2[nH]c(=O)c(C(c3nnnn3CCc3ccccc3)N3CCOCC3)cc2c1` (configuration not stated), with 0.0263. Then `O=C(CCc1ccccc1)NNC(=S)NC(=O)c1ccc(Cl)cc1`, with active: 3.03; and `COc1ccc2c(c1)CCc1c(C(=O)Nc3c(C)nn(Cc4ccccc4)c3C)noc1-2`, with 0.0597. Take `O=C(CCCCCNc1nc(=S)[nH]c2ccccc12)NCCc1c[nH]c2ccccc12`: the z-score is -0.261.

`C=CCNC(=O)c1onc(CSc2ccc(F)c(F)c2)c1C(=O)O` had a z-score of -0.335. Then `COc1cccc(NC(=S)N/N=C2\CC(C)(C)Oc3ccc(O)cc32)c1`, with -0.0142; and `COC(=O)c1ccc(NCCC(=O)O)cc1`, with -0.0634; and `CC(NC(=O)Cc1ccccc1)c1ccc(F)cc1` (configuration not stated), with -0.0267. Then `C(=N\N1CCN(C2c3ccccc3-c3ccccc32)CC1)/c1ccncc1`, with -0.148.
